{"source": "the RNAGym collection of RNA variant scans (doi:10.7554/elife.90254)", "parents": {"B1": {"name": "OR4K15 (parent)", "chain": "GUUAACGGUCAUAGGCCAUGGAAACUAGGAGCACCAUUUCGCUGCCAGUGAAGAAAUGAACAAAGAAAAUCUGGGCCAGGCAGGCAUCAAAAGAAAUAGUCUUGCGCUCAACCAGAAAGUCUGUAAUCAUUUUAAGGGUA"}}, "note": "The source gives no read counts; variants with many changes may rest on few reads."}
{"variants_of": "B1", "experiment": "self-cleavage, relative activity (ratio to wild type); higher = more cleavage; in vitro, sequencing; the parent is a self-cleaving ribozyme"}
{"variant": "C10U G28A A30G U49C G50U A111U A116G", "self-cleavage": 0.02}
{"variant": "A33U U72A A82G U97A", "self-cleavage": 0.2}
{"variant": "A22C A55G A62G A94G A116G", "self-cleavage": 0.28}
{"variant": "A18U A96G G106U A117G", "self-cleavage": 0.01}
{"variant": "A5G A118G U127C", "self-cleavage": 0.15}
{"variant": "A5G U70C A92G U133C", "self-cleavage": 0.55}
{"variant": "A13G U38G U49A U122C", "self-cleavage": 0.36}
{"variant": "A56G A86G U87G", "self-cleavage": 1.34}
{"variant": "A66G A69G U108C A134G", "self-cleavage": 0}
{"variant": "A95G U122C U132C", "self-cleavage": 2.56}
{"variant": "A110G A114G U139C", "self-cleavage": 0.05}
{"variant": "U12G A51G U124C U131C", "self-cleavage": 0.67}
{"variant": "C32G U49C A68G U131C", "self-cleavage": 0.97}
{"variant": "U19A A23G A51U A67G A118G U122C U139C", "self-cleavage": 0.75}
{"variant": "A36U A114G A134U", "self-cleavage": 0.44}
{"variant": "C34A G104A U122C", "self-cleavage": 0}
{"variant": "A27G U39A A64G A67G A86G", "self-cleavage": 2.1}
{"variant": "C16G A51G A66G A116U U131C", "self-cleavage": 0.07}
{"variant": "A27G A30U A55G U70A", "self-cleavage": 0.66}
{"variant": "A36G A114C U139C", "self-cleavage": 0.02}
{"variant": "A22U A54G G84U", "self-cleavage": 1.04}
{"variant": "G21A U57C A95G", "self-cleavage": 1.73}
{"variant": "U38A A64G A96G C107U C109U A135U", "self-cleavage": 0.01}
{"variant": "A4G U19C U122C", "self-cleavage": 0.88}
{"variant": "U9C A33G U49A U87C A117G", "self-cleavage": 1.38}
{"variant": "U9C G50A A66G", "self-cleavage": 1.51}
{"variant": "C45U A62G U87A", "self-cleavage": 1.36}
{"variant": "A64G G75C A78G U120C U139A", "self-cleavage": 0.02}
{"variant": "A13U A66G A90G", "self-cleavage": 1.04}
{"variant": "A60G A62G U103C", "self-cleavage": 0.55}
{"variant": "U43C A51G A62U U130C", "self-cleavage": 0.41}
{"variant": "U87C A118C U132C", "self-cleavage": 0.54}
{"variant": "A11G A27U U57C A66G U72A A90U U120C", "self-cleavage": 0.17}
{"variant": "U49A A68G U122C A125G", "self-cleavage": 0.27}
{"variant": "A92G A116G U132C", "self-cleavage": 0.31}
{"variant": "G75A A116U U124C", "self-cleavage": 0.02}
{"variant": "U39C A126U U132C", "self-cleavage": 1.58}
{"variant": "A56G A68G C77A", "self-cleavage": 1.02}
{"variant": "U9G A24G A36U U97C", "self-cleavage": 1.23}
{"variant": "A47U A52G U127C U130A", "self-cleavage": 0.17}
{"variant": "U70A A92U A98U A116G A126G", "self-cleavage": 1.92}
{"variant": "U19C A54G A126G A134G A135G", "self-cleavage": 2.19}
{"variant": "U72C C81U U100C U124C", "self-cleavage": 0.26}
{"variant": "U19C A23G A78U A125G A126U", "self-cleavage": 0.06}
{"variant": "A33U A54G A68G", "self-cleavage": 1}
{"variant": "U2C A33G A69G A86G A89C", "self-cleavage": 0.23}
{"variant": "A62G A78U U103C U130C A135G", "self-cleavage": 0.01}
{"variant": "A89U A117G U127C", "self-cleavage": 1.19}
{"variant": "A56G A67G A89G", "self-cleavage": 1.12}
{"variant": "U49A A66G A111G A118U", "self-cleavage": 0}
{"variant": "U38C U103C A125G", "self-cleavage": 0.2}
{"variant": "A98U A110C A126G U131C", "self-cleavage": 0.16}
{"variant": "U72C C109A U132C", "self-cleavage": 0.01}
{"variant": "A24G U102C U108C A110C", "self-cleavage": 0}
{"variant": "U9A U39C A67G A89U", "self-cleavage": 1.38}
{"variant": "A22U A89G A126U", "self-cleavage": 0.72}
{"variant": "A59G A62G G79U U102A", "self-cleavage": 0.13}
{"variant": "A23G G41A U102C A114G A135U", "self-cleavage": 0.73}
{"variant": "A23G U72A U108A", "self-cleavage": 0.02}
{"variant": "A36G A110G U120A", "self-cleavage": 0.15}
{"variant": "U37C A47G A67G A95G", "self-cleavage": 1.68}
{"variant": "A30G A82G A94G A116G", "self-cleavage": 0.01}
{"variant": "A18U A36G A54G A69U A78U C101A A135G", "self-cleavage": 0.03}
{"variant": "U12C A13G A64G A117G", "self-cleavage": 0.89}
{"variant": "U3A A54U U108C A114G", "self-cleavage": 0}
{"variant": "U43C A129U U132A", "self-cleavage": 1.09}
{"variant": "U38C A67G A126G", "self-cleavage": 2.2}
{"variant": "U37C U43C A69G U87A", "self-cleavage": 1.3}
{"variant": "A52G A78G A116G", "self-cleavage": 0.17}
{"variant": "A11G A22G U130C U132G", "self-cleavage": 0.74}
{"variant": "A52G A56G A89U A116G", "self-cleavage": 1.18}
{"variant": "G1U A30G U38A A60G C101U", "self-cleavage": 0.6}
{"variant": "U37A A66G A94G", "self-cleavage": 1.88}
{"variant": "A54G A59G A114U", "self-cleavage": 0.13}
{"variant": "A24C A67G A86G", "self-cleavage": 1.27}
{"variant": "U38C A94G A111G A117G", "self-cleavage": 0.01}
{"variant": "A67G A91G U131C", "self-cleavage": 0.9}
{"variant": "A33G G41A U49C A96G", "self-cleavage": 0.95}
{"variant": "U9C A82G G123A U127C", "self-cleavage": 0.26}
{"variant": "U9A U12A A47U A51U A94U U131C", "self-cleavage": 0.52}
{"variant": "U9C G21U A51U A63G A82G", "self-cleavage": 1.45}
{"variant": "A22G A68G A95G U102C", "self-cleavage": 1.44}
{"variant": "A4G U9C A91G", "self-cleavage": 1.52}
{"variant": "U38C A47G U49C A60G A63U U70A A110G", "self-cleavage": 0.1}
